Assay results reported in the supplement of paper PMC4967469.

How the values were obtained:
Assay in all cases: Viability of human cancer cell lines after 72 h of drug (GDSC screen)
[1] = compound: CC1=C(/C=C/C(C)=C/C=C/C(C)=C/C(=O)O)C(C)(C)CCC1 [Tretinoin]; conditions: top dose 10 µM; top dose inferred
Description: (§1)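 Human cancer cell lines in 384-well plates, medium with 10% serum, drug for 72 h over a 256-fold dose range (nine 2-fold or five 4-fold steps up to the top dose). Adherent lines were fixed and stained with the nucleic acid dye Syto60, suspension lines read with resazurin; signal relative to control wells, capped at 0 and 100%. One two-parameter sigmoid per drug and line, fitted in a mixed model over all curves with the slope shared within a line.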

[2] = compound: CCn1c(-c2nonc2N)nc2c(C#CC(C)(C)O)ncc(OC[C@H]3CCCNC3)c21 [GSK690693]; conditions: top dose 10.24 µM; top dose inferred
Description: as §1

[3] = compound: COc1cc2c(NC3CCN(C(C)C)CC3)nc(C3CCCCC3)nc2cc1OCCCN1CCCC1 [UNC0638]
Description: as §1

[4] = compound: Cc1cccc(-c2[nH]c(C(C)(C)C)nc2-c2ccc3c(c2)OCO3)n1 [SB-505124]; conditions: top dose 10 µM; top dose inferred
Description: as §1

[5] = compound: O=C(NCCCNc1nc(Nc2cccc(NC(=O)N3CCCC3)c2)ncc1I)c1cccs1 [BX-795]; conditions: top dose 5 µM; top dose inferred
Description: as §1

[6] = compound: Oc1cccc(-c2nc(N3CCOCC3)c3oc4ncccc4c3n2)c1 [PI-103]; conditions: top dose 10.24 µM
Description: as §1

[7] = top dose 20 µM, screen: GDSC drug entry 1236, top dose inferred
[8] = top dose 40 µM, screen: GDSC drug entry 245

Cell Line	AUC [1]	IC50 [1] [µM]	AUC [2]	IC50 [2] [µM]	AUC [3, 7]	IC50 [3, 7] [µM]	AUC [3, 8]	IC50 [3, 8] [µM]	AUC [4]	IC50 [4] [µM]	AUC [5]	IC50 [5] [µM]	AUC [6]	IC50 [6] [µM]
A2780 (ovary, semi-adherent)	0.881	> 10	0.826	6.5	0.867	19.1	0.717	10.6	0.934	> 10	0.906	> 5	0.182	0.0679
ASH-3 (thyroid, adherent)	0.988	> 10	0.982	> 10.2	0.977	> 20	0.988	> 40	0.931	> 10	0.897	> 5	0.861	8.63
AU565 (breast, adherent)	0.873	> 10	0.944	> 10.2	0.84	16.2	0.819	26.2	0.982	> 10	0.956	> 5	0.921	> 10.2
AsPC-1 (pancreas, adherent)	0.971	> 10	0.947	> 10.2	0.787	16.8	0.814	> 40	0.843	> 10	0.929	> 5	0.948	> 10.2
BFTC-905 (bladder, adherent)	0.989	> 10	0.989	> 10.2	0.906	> 20	0.936	> 40	0.99	> 10	0.744	1.38	0.676	1.83
BHT-101 (thyroid, adherent)	0.985	> 10	0.984	> 10.2	0.854	16.5	0.878	> 40	0.957	> 10	0.754	1.73	0.872	> 10.2
BICR10 (head and neck, adherent)	0.984	> 10	0.984	> 10.2	0.971	> 20	0.948	> 40	0.955	> 10	0.874	> 5	0.985	> 10.2
BICR22 (head and neck, adherent)	0.907	> 10	0.957	> 10.2	0.921	> 20	0.982	> 40	0.981	> 10	0.698	1.23	0.55	0.894
BICR78 (head and neck, adherent)	0.887	> 10	0.955	> 10.2	0.942	> 20	0.956	> 40	0.953	> 10	0.835	4.05	0.852	9.91
BL-41 (Burkitt lymphoma, suspension)	0.994	> 10	0.314	0.222	0.816	7.95	0.601	4.42	0.977	> 10	0.735	1.2	0.059	< 0.04
BT-20 (breast, adherent)	0.967	> 10	0.818	7.66	0.921	> 20	0.97	> 40	0.982	> 10	0.972	> 5	0.566	1.01
BT-483 (breast, adherent)	0.925	> 10	0.971	> 10.2	0.875	> 20	0.788	> 40	0.967	> 10	0.949	> 5	0.555	1.03
BxPC-3 (pancreas, adherent)	0.946	> 10	0.984	> 10.2	0.815	12.8	0.706	10.3	0.982	> 10	0.905	> 5	0.984	> 10.2
C3A (liver, adherent)	0.988	> 10	0.988	> 10.2	0.97	> 20	0.988	> 40	0.965	> 10	0.988	> 5	0.988	> 10.2
C32 (melanoma, adherent)	0.957	> 10	0.987	> 10.2	0.985	> 20	0.975	> 40	0.984	> 10	0.928	> 5	0.98	> 10.2
C-4-I (cervix, adherent)	0.986	> 10	0.986	> 10.2	0.985	> 20	0.969	> 40	0.985	> 10	0.95	> 5	0.981	> 10.2
CADO-ES1 (Ewing sarcoma, suspension)	0.974	> 10	0.971	> 10.2	0.98	> 20	0.734	11.8	0.96	> 10	0.955	> 5	0.532	0.786
CAL-12T (non-small cell lung carcinoma, adherent)	0.976	> 10	0.931	> 10.2	0.895	> 20	0.781	18.7	0.982	> 10	0.85	4.51	0.262	0.122
CAL-29 (bladder, adherent)	0.93	> 10	0.901	> 10.2	0.925	> 20	0.885	> 40	0.913	> 10	0.781	2.24	0.983	> 10.2
CAL-39 (cervix, adherent)	0.975	> 10	0.985	> 10.2	0.874	> 20	0.822	24.5	0.948	> 10	0.87	4.97	0.881	> 10.2

Cell Line	AUC [1]	IC50 [1] [µM]	AUC [2]	IC50 [2] [µM]	AUC [3, 7]	IC50 [3, 7] [µM]	AUC [3, 8]	IC50 [3, 8] [µM]	AUC [4]	IC50 [4] [µM]	AUC [5]	IC50 [5] [µM]	AUC [6]	IC50 [6] [µM]
CAL-51 (breast, adherent)	0.944	> 10	0.949	> 10.2	0.99	> 20	0.985	> 40	0.947	> 10	0.736	1.32	0.849	6.16
CAL-62 (thyroid, adherent)	0.95	> 10	0.987	> 10.2	0.892	> 20	0.97	> 40	0.981	> 10	0.828	2.89	0.659	1.72
CAL-72 (osteosarcoma, adherent)	0.904	> 10	0.981	> 10.2	0.831	15.9	0.984	> 40	0.957	> 10	0.858	> 5	0.984	> 10.2
CAL-78 (chondrosarcoma, adherent)	0.986	> 10	0.986	> 10.2	0.799	11.3	0.856	39.8	0.98	> 10	0.851	4.74	0.984	> 10.2
CAL-85-1 (breast, adherent)	0.961	> 10	0.895	> 10.2	0.979	> 20	0.828	34.7	0.979	> 10	0.866	> 5	0.556	0.947
CAL-120 (breast, adherent)	0.963	> 10	0.96	> 10.2	0.965	> 20	0.825	33.8	0.973	> 10	0.84	5	0.45	0.45
CAPAN-1 (pancreas, adherent)	0.984	> 10	0.964	> 10.2	0.985	> 20	0.876	> 40	0.985	> 10	0.981	> 5	0.98	> 10.2
CCF-STTG1 (glioma, adherent)	0.971	> 10	0.87	9.62	0.847	14.9	0.877	> 40	0.987	> 10	0.859	4.21	0.333	0.219
CCK-81 (large intestine, adherent)	0.984	> 10	0.982	> 10.2	0.989	> 20	0.818	20.9	0.989	> 10	0.962	> 5	0.813	5.11
CHL-1 (melanoma, adherent)	0.826	5.58	0.966	> 10.2	0.961	> 20	0.911	> 40	0.931	> 10	0.778	1.91	0.248	0.127
CHSA0011 (chondrosarcoma, adherent)	0.863	> 10	0.953	> 10.2	0.799	14.5	0.83	> 40	0.931	> 10	0.788	3.22	0.781	6.14
CHSA0108 (chondrosarcoma, adherent)	0.873	> 10	0.982	> 10.2	0.651	3.52	0.669	8.02	0.965	> 10	0.805	3.01	0.885	> 10.2
CHSA8926 (chondrosarcoma, adherent)	0.98	> 10	0.977	> 10.2	0.692	5.47	0.761	20.1	0.977	> 10	0.806	3.96	0.832	> 10.2
COLO-205 (large intestine, suspension)	0.985	> 10	0.974	> 10.2	0.835	12.9	0.733	11.4	0.971	> 10	0.834	3.18	0.987	> 10.2
COLO-678 (large intestine, semi-adherent)	0.985	> 10	0.981	> 10.2	0.907	> 20	0.784	22.4	0.982	> 10	0.95	> 5	0.958	> 10.2
COLO-679 (melanoma, adherent)	0.982	> 10	0.983	> 10.2	0.81	12.1	0.88	> 40	0.942	> 10	0.928	> 5	0.67	2.03
COLO-680N (oesophagus, adherent)	0.972	> 10	0.907	> 10.2	0.886	> 20	0.986	> 40	0.983	> 10	0.953	> 5	0.756	4.09
COLO-783 (melanoma, adherent)	0.991	> 10	0.99	> 10.2	0.753	6.43	0.868	34.2	0.976	> 10	0.982	> 5	0.929	> 10.2
COR-L23 (large cell lung carcinoma, adherent)	0.977	> 10	0.955	> 10.2	0.825	11.6	0.724	10.6	0.969	> 10	0.872	4.55	0.405	0.353

Lines with a small IC50 respond at low doses; where the fit passes the top or lowest dose, that dose stands as a limit. AUC sums up the same curve from the lowest dose to the 256-fold higher top dose: 1 means no effect, lower means more sensitive. For part of these data: Where the top dose is marked as inferred, it comes from the curve model; the source does not state it. For part of these data: Drugs with an entry number were screened twice under separate entries, and the two screens often disagree.
